From PMC2838797
These are yes or no findings as the source states them, for the method shown. For some of these results: Binding seen in cells or lysates may run through a third protein. Some binding calls cover weakened binding; strength is not graded here. For some of these results: Sequences can lack the tags named with a protein. Blank lines part the entries; values can stand above or below the substance they belong to.

The chains behind the UniProt entries cited, without tags or fusion partners. Where a name states a change or a piece, a line headed by the entry shows the natural chain unless it says otherwise.
UniProt P40337: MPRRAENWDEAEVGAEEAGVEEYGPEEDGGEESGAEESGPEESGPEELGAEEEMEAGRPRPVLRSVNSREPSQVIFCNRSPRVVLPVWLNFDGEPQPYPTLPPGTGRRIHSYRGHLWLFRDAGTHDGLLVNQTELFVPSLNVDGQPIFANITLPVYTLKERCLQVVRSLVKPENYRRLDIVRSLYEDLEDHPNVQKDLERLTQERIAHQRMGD
UniProt O75928: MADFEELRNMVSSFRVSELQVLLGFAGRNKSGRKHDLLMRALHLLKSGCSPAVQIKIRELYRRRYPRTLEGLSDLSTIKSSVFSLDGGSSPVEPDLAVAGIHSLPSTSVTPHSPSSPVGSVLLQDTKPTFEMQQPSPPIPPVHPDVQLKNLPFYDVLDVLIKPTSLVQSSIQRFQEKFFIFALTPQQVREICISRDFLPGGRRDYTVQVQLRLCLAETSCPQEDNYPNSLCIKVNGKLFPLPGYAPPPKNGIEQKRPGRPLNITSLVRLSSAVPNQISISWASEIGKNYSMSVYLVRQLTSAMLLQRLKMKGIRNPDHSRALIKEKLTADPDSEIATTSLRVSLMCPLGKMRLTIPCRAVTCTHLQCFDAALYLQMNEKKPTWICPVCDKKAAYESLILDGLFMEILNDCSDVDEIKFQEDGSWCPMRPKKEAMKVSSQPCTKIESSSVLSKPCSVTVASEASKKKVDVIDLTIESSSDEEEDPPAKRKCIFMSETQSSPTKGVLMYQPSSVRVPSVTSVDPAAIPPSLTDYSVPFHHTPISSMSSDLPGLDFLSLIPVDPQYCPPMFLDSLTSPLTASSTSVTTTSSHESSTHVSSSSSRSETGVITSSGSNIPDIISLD
UniProt P63279: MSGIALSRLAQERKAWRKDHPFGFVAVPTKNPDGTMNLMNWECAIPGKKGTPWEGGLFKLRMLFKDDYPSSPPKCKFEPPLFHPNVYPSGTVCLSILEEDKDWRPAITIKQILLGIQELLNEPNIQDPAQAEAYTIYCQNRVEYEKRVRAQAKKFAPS
UniProt O75925: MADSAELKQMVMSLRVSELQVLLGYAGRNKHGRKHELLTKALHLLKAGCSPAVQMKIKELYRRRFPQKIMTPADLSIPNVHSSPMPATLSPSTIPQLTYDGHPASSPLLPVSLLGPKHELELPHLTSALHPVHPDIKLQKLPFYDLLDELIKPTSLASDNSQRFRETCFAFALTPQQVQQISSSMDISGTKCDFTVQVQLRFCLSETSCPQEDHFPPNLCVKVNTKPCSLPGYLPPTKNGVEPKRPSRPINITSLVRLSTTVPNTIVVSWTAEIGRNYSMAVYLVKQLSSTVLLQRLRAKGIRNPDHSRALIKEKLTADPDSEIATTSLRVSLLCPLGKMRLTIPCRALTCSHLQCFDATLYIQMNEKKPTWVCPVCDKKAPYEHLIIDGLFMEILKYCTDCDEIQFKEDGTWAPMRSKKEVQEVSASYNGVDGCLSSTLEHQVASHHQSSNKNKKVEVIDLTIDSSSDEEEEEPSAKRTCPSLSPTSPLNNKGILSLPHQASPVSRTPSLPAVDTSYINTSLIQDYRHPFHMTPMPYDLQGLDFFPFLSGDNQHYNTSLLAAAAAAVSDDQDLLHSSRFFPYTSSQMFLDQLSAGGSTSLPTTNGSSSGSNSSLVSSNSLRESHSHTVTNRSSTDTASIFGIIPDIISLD

Key:
[1] = biological target: HA-VHL (wild type von Hippel Lindau tumor suppressor with HA tag) (human) (UniProt P40337); experiment: co-IP; HEK293 cells cotransfected, harvested 48 h posttransfection; RIPA lysates, IP and immunoblotting as indicated (Figures 2A, 2E, 4A)
GST-PIASy1-492 (human) = biological target: T1, GST-PIASy1-492 (human) (UniProt Q8N2W9); experiment: pull-down; GST-PIASy on glutathione sepharose beads, 35S-labeled in vitro-translated proteins, 4 hrs at 4°C, 50 mM Tris-HCl pH 7.5, 100 mM NaCl, 10 µM ZnCl2, 10% glycerol, 0.1 mM DTT; autoradiography (Figures 4B, S3); only the target purified
T1 sequence: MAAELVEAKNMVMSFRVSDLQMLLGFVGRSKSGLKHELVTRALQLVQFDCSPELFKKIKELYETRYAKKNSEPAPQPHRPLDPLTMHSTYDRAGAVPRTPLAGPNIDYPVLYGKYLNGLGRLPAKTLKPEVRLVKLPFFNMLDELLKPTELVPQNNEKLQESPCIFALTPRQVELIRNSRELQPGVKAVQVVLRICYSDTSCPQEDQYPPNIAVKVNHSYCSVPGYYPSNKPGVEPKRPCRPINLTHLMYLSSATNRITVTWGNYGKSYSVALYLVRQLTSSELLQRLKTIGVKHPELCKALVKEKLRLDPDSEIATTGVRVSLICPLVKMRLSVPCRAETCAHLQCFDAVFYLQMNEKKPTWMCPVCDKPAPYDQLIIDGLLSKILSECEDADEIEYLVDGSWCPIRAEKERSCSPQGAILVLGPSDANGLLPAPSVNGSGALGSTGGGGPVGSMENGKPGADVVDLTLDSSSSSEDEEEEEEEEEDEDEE

[2] = biological target: T2, FLAG-PIASy (full length PIASy) (human) (UniProt Q8N2W9); experiment: co-IP; cells coexpressing FLAG-PIASy and HA-VHL truncated mutants (HEK293 in the text, 786-O in the legend); VHL precipitated by PIASy (Figure 4D)
T2 sequence: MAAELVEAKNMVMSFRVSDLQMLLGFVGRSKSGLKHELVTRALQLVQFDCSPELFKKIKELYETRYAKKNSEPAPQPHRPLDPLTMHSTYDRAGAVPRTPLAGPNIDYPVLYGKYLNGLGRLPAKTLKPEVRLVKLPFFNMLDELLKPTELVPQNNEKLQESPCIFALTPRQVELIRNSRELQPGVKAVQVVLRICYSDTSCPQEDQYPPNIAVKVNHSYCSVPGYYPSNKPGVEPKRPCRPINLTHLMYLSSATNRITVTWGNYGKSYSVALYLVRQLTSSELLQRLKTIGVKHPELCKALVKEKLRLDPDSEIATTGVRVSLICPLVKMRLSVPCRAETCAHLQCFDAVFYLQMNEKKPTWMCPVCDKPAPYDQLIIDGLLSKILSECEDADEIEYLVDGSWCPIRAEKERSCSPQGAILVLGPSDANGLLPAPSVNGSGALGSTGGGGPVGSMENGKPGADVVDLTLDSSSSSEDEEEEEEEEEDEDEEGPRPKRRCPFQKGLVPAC

[3] = biological target: FLAG-VHL (wild type) (human) (UniProt P40337); experiment: co-IP; data not shown; Ubc9 and VHL with or without PIASy
FLAG-VHL (K196R) (human) = FLAG-VHL (K196R) (human) (UniProt P40337); experiment: dimer-size band on immunoblot of whole cell lysate (oligomer assay); 786-O cells transfected, 48 hr, cell extracts immunoblotted with anti-FLAG; also with PIASy coexpression or PIASy knockdown (Figures 3A, 3B, 3D)
FLAG-VHL (K171R) (human) = FLAG-VHL (K171R) (human) (UniProt P40337); experiment: as above

binding [1]: no binding
Substance: FLAG-PIASx (from UniProt O75928 1-621) (enzyme)

binding (GST-PIASy1-492 (human)): binds
Substance: HA-VHL 54-190, in vitro translated, 35S-labeled (from UniProt P40337 54-190) (domain or fragment)

binding (GST-PIASy1-492 (human)): binds
Substance: HA-VHL 54-151, in vitro translated, 35S-labeled (from UniProt P40337 54-151) (domain or fragment)

binding [3]: binds
Substance: HA-Ubc9 (from UniProt P63279 1-158) (enzyme)

binding (FLAG-VHL (K171R) (human)): no binding
Substance: FLAG-VHL (K171R) (from UniProt P40337 1-213)

The remaining lines, values behind:

Substance: FLAG-PIAS1 (from UniProt O75925 1-651) (enzyme)
binding [1]: no binding

Substance: VHL, in vitro-translated, radiolabeled (wild type) (from UniProt P40337 1-213)
binding (GST-PIASy1-492 (human)): binds

Substance: wild type HA-VHL, in vitro translated, 35S-labeled (from UniProt P40337 1-213)
binding (GST-PIASy1-492 (human)): binds

Substance: HA-VHL Δ1-53, in vitro translated, 35S-labeled (from UniProt P40337 54-213) (domain or fragment)
binding (GST-PIASy1-492 (human)): binds

Substance: HA-VHL Δ1-53 (from UniProt P40337-1 54-213) (domain or fragment)
binding [2]: no binding

Substance: HA-VHL 54-120, in vitro translated, 35S-labeled (from UniProt P40337 54-120) (domain or fragment)
binding (GST-PIASy1-492 (human)): binds

Substance: HA-VHL (wild type von Hippel Lindau tumor suppressor with HA tag) (from UniProt P40337 1-213)
binding [2]: binds

Substance: FLAG-VHL (K196R) (from UniProt P40337 1-213)
binding (FLAG-VHL (K196R) (human)): no binding
